Measured values published in PMC12040169 (PLOS Biology, 2025).
The other results are listed elsewhere or left out.

What follows are compounds tested on T1, C. trachomatis L2/434/Bu expressing GFP (CTL2-GFP). Settings: total inclusion area; 28.5 h, 10 µM; inhibitor.
T1 construct: L2/434/Bu GFP intracellular growth in HeLa cells
Set-up: species or system HeLa; C. trachomatis total inclusion area by high-content imaging, normalised to DMSO
In short: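 Post-fluorescence-read fixation, DNA staining with Hoechst and high-content imaging; GFP inclusion area and number per well, and nuclei counts, used as proxies for bacterial growth and host viability.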

Structure (SMILES) | % of control remaining
CCCc1[nH]nc(O)c1CCc1c(F)cccc1Cl [CBK081121] | 110.099
O=C1N(CN2CCN(C(c3ccccc3)c3ccccc3)CC2)c2ccccc2C12OCCCO2 [CBK265538] | 116.853
C/C(=C\C(=O)Nc1ccc(O)cc1C(=O)O)c1ccccc1 [CBK265125] | 95.5712
O=C(c1ccccc1F)N1CCC(O)(c2ccc(F)cc2)CC1 [CBK281943] | 107.804
O=C1CO[C@H]2CN(S(=O)(=O)c3ccccc3)C[C@H]2N1c1ccccc1 [CBK289236] | 115.061
Oc1ccc(/C=N/N=C/c2ccc(O)c(O)c2)cc1O [CBK261641] | 85.6743
NCCNC(=O)c1cc2cc(F)ccc2[nH]1 [CBK107345] | 85.4891
COc1ccc(C)cc1NC(=O)CCN1CCN(C)CC1 [CBK264216] | 96.7055
O=C(O)CCCC(=O)Nc1ccccc1Br [CBK261322] | 91.0423
Cc1ccc(C(=O)NCCCc2ccc(Cl)cc2)c(=O)n1C [CBK281567] | 113.489
FC(F)(F)c1ccc(OCCOc2ccccc2)nc1 [CBK115829] | 101.295
O=C(NCCc1cccs1)NC1CCCc2c1cnn2CCO (stereo not shown) [CBK306324] | 7.977
CCCCCC1CC(CC(=O)NC(=S)Nc2ccccc2Cl)C(=O)O1 (stereo not shown) [CBK019495] | 94.4774
C(=N\Nc1nnc(-c2ccccc2)c(-c2ccccc2)n1)/c1cccnc1 [CBK262025] | 105.378
CN1CCN(c2ccc(NC(=S)NC(=O)c3cc4ccccc4o3)cc2)CC1 [CBK266240] | 120.594
Cc1ccc(CN(CC(=O)N2CCCCC2)S(=O)(=O)c2ccc(C)cc2)cc1 [CBK264646] | 109.71
CN(Cc1ccc(N2CCCCC2)cc1)S(=O)(=O)c1ccsc1C(=O)O [CBK295333] | 61.6611
Cc1nn(C)c(C)c1CC(=O)Nc1cccc(CN2CCCCC2)c1 [CBK304547] | 19.6785
Cc1ccc(S(=O)(=O)N2CC[C@H](c3nnc(-c4ccccc4)o3)C2)cc1 [CBK289405] | 110.422
Cc1cc(=O)nc(SC(C)C(=O)O)[nH]1 (stereo not shown) [CBK264630] | 106.921
CCOC(=O)CN1CCN(S(=O)(=O)c2cc(Cl)ccc2Cl)CC1 [CBK044628] | 101.965
Cc1cnn(CCC(=O)N2CCOC(c3nc(C(C)(C)C)n[nH]3)C2)c1 (stereo not shown) [CBK305336] | 95.9408
O=C1CCC(=O)N1CCOc1nccnc1N1CCN(CCc2ccccn2)CC1 [CBK084309] | 75.5149
CC(C)OC(=O)CSc1nnc(-c2cnccn2)n1Cc1ccco1 [CBK267586] | 103.181
O=C1NC(=O)c2cc(S(=O)(=O)NCCCO)cc3cccc1c23 [CBK267602] | 96.8189
Cc1cc(NC(=O)CSc2ccc3nnc(-c4ccccc4)n3n2)no1 [CBK287518] | 92.7494

Structure (SMILES) | % of control remaining
COc1ccc2c(-c3cc(N)sn3)c(C)oc2c1 [CBK022260] | 85.2625
Cc1cccn2c(CN3CCCOCC3)c(C(=O)N3CCOCC3)nc12 [CBK307144] | 70.937
CN(C(=O)c1cccs1)c1ccc(Oc2ncc(C(F)(F)F)cc2Cl)cc1 [CBK161654] | 75.2751
O=C(O)c1cccc(-n2cc(-c3cccc(C(F)(F)F)c3)nn2)c1 [CBK112949] | 112.335
Nc1ccc(-c2cncc(NCc3ccccc3)n2)cc1 [CBK065578] | 62.214
CN1CCN(C(=O)CSc2nc(-c3cccs3)cc(C(F)(F)F)n2)CC1 [CBK307372] | 93.5155
Cc1cc(C)n(C2CCN(Cc3cn(C)c4cc(F)ccc34)CC2)n1 [CBK281806] | 96.7313
CN(C)CCCNc1c(N)c(=O)oc2ccccc12 [CBK261468] | 95.2216
CN(C)S(=O)(=O)N1CCC(Cc2ccccc2)CC1 [CBK263768] | 95.3745
COc1ccc(Nc2ccc(-c3cccc(OC(F)(F)F)c3)cn2)cn1 [CBK037022] | 138.108
COC1CCCC(C(=O)N2CCC(c3onc4c3CCCC4)CC2)C1 (stereo not shown) [CBK284598] | 65.3233
COc1ccc(Cl)cc1NC(=O)NC(=O)C1CCN(CCOc2cccc3ccccc23)CC1 [CBK035116] | 77.8537
COCc1ccc(C(=O)N2CCN3C(=O)CCC32C)o1 (stereo not shown) [CBK282091] | 84.4619
Cn1cc(C(=O)NCC(c2ccccc2F)N2CCCC2)ccc1=O (stereo not shown) [CBK281950] | 137.085
Cc1ccc(-c2nnc(SCC(=O)Nc3ccc(N4CCOCC4)cc3)n2C)cc1 [CBK270247] | 74.4308
CCc1cccc(-n2nc(C)c3c2NC(=O)CC3C(=O)c2ccc(CC)s2)c1 (stereo not shown) [CBK294435] | 70.3488
COC(=O)CC(C)(C)/C(C)=N/NS(=O)(=O)c1ccc(C)cc1 [CBK263602] | 98.2811
CCn1nccc1N1CCCC(NC(=O)CCc2ccccc2Cl)C1=O (stereo not shown) [CBK305455] | 64.114
COc1cccc(CN2CCN(C(=O)c3cc(C)[nH]c3C)[C@@H](C)C2)c1 [CBK284255] | 89.6631
Nc1nonc1-c1nc2ccccc2n1Cc1ccc(-c2nn[nH]n2)cc1 [CBK267648] | 93.0871
O=C(CSCc1ccccc1Cl)NNC(=O)c1cccnc1 [CBK267826] | 82.0892
O=C(NC1CCCCC1)N1CC[C@H](c2nc3ccccc3o2)C1 [CBK289372] | 95.6138
Cc1nc(-c2ccc(NCCc3nc(C4CC4)cs3)nc2)[nH]c(=O)c1C [CBK304424] | 43.7599
Cc1ccc(-c2n[nH]c(=S)n2CC(=O)N(C)Cc2ccc(N3CCOCC3)cc2)cc1 [CBK297908] | 100.604
Nc1nonc1OCCCCOc1nonc1N [CBK027716] | 5.818
COc1ccc(-c2csc(Nc3ccc(S(=O)(=O)Nc4cc(C)on4)cc3)n2)cc1OC [CBK261797B] | 89.1995
